The target in experiment [1] is endogenous DYNLT1 (human (endogenous in K562)) (UniProt P63172). The experiment in a line: co-IP; untransfected K562 cell lysate immunoprecipitated with rabbit anti-DYNLT1 antibody or rabbit IgG, Protein G beads; immunoblot with MAb414 (NUP153, NUP62) or anti-NUP98 antibody. A general note: In western blotting, separated proteins are transferred to a membrane and probed.

Protein sequences, listed by entry. Tags and fused reporters are not part of them. Lines headed by an entry give the natural chain unless they say otherwise; changes in a name come on top. Residues count along the entry.
UniProt P63172: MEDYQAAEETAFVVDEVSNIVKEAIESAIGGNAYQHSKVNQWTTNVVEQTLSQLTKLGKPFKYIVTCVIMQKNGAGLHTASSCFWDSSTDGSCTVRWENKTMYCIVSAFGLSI
GST-DYNLT1 N-terminus (aa 1–61): residues 1-61 of P63172
GST-DYNLT1 C-terminus (aa 62–113): residues 62-113 of P63172
UniProt P31269: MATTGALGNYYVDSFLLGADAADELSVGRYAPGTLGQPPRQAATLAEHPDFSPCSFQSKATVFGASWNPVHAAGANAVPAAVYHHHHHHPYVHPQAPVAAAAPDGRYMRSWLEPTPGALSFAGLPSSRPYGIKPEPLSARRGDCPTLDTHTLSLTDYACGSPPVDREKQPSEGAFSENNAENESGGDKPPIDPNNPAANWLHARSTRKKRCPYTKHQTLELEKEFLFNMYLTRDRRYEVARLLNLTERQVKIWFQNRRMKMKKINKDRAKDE
UniProt P52948, residues 1-880: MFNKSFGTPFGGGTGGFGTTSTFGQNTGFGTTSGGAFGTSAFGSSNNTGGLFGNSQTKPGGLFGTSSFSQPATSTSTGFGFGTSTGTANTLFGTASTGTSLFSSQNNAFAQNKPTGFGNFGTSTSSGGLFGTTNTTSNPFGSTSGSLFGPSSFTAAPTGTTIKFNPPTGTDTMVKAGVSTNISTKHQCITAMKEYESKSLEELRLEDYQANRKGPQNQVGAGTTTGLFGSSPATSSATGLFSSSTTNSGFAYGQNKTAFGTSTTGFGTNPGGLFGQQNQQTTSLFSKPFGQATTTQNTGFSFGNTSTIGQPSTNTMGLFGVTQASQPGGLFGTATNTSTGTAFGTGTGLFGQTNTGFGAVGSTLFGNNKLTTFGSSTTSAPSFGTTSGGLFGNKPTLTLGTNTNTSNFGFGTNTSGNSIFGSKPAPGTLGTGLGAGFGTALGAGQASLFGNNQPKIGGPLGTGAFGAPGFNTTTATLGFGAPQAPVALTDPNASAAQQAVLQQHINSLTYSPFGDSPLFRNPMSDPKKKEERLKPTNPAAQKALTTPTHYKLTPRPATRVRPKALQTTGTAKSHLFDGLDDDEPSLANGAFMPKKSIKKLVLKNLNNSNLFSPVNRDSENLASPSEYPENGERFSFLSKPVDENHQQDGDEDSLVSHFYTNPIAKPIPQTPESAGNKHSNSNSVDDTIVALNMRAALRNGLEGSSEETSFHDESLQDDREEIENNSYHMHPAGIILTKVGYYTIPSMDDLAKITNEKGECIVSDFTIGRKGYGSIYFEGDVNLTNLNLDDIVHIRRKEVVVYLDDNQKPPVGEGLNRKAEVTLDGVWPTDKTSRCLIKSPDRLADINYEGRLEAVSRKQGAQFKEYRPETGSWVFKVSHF
UniProt P37198: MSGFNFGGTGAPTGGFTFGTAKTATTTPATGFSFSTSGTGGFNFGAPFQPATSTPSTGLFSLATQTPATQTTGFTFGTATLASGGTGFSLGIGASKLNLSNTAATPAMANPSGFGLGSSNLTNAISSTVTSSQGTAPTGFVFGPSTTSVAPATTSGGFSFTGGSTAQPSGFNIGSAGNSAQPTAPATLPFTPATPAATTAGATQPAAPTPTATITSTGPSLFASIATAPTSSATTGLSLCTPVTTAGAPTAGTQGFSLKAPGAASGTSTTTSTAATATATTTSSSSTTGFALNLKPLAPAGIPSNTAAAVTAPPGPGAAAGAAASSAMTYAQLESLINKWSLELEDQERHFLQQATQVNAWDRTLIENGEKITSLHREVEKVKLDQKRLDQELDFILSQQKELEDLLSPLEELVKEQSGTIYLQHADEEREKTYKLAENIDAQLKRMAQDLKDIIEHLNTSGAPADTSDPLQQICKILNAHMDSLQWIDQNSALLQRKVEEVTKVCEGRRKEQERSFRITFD
UniProt P49790: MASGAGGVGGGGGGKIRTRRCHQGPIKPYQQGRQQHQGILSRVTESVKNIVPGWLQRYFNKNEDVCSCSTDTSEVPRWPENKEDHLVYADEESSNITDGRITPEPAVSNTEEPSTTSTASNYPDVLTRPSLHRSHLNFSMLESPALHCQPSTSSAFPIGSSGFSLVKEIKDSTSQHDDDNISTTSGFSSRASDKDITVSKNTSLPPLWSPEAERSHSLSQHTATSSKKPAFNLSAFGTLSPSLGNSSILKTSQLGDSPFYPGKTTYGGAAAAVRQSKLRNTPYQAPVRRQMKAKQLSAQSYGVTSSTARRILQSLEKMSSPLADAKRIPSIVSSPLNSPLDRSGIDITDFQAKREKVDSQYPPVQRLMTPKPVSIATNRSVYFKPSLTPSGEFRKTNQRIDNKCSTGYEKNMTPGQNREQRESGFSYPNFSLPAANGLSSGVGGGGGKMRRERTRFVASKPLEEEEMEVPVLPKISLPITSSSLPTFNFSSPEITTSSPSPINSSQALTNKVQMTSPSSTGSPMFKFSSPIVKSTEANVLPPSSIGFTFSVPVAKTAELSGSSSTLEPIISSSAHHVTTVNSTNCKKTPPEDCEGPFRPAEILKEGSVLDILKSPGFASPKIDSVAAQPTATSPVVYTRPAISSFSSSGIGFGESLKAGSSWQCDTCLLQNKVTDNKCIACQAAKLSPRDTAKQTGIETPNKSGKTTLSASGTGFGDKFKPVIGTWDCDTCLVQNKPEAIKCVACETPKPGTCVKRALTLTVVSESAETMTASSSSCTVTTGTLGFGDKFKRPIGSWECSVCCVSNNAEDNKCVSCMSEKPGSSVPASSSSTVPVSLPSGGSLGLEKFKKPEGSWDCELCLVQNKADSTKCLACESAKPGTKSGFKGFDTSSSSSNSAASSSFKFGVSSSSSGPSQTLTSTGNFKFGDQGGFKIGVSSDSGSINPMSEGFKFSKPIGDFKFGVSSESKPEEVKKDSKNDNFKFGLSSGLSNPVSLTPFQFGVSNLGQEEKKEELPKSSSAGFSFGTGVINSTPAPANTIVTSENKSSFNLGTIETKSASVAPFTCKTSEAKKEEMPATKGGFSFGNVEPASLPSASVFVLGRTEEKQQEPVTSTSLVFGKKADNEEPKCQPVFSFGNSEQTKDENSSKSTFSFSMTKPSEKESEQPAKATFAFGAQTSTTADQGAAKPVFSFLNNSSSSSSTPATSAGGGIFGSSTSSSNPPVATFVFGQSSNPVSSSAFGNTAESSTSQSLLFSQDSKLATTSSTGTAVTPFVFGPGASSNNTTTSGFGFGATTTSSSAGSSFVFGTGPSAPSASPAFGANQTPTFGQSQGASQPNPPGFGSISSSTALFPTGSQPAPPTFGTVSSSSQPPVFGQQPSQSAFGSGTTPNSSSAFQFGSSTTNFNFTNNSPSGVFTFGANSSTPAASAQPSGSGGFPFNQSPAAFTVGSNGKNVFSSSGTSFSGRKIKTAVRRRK

Experiment [2] deals with GST-DYNLT1 C-terminus (aa 62–113) (human) (UniProt P63172). The experiment in a line: pull-down; GST-DYNLT1, GST-DYNLT1 N- or C-terminus (or GST control) immobilized on beads, incubated 1 h at 4°C with 35S-labelled in vitro translated protein in TB-T (20 mM HEPES-KOH pH 7.4, 110 mM potassium acetate, 2 mM MgCl2, 0.1% Tween 20); SDS-PAGE and autoradiography of bound and unbound fractions; only the target purified.

The next experiment has as its target GST-DYNLT1 (human) (UniProt P63172). The description is as above.
Experiment [3] has as its target GST-DYNLT1 N-terminus (aa 1–61) (human) (UniProt P63172). The experiment is described as above.
The next experiment addresses GST-HOXA9 (UniProt P31269). As to the kind of experiment: pull-down; GST, GST-NUP98-HOXA9 or GST-HOXA9 immobilized on beads, incubated with purified recombinant DYNLT1 in TB-T (20 mM HEPES-KOH pH 7.4, 110 mM potassium acetate, 2 mM MgCl2, 0.1% Tween 20), 1 h at 4°C; SDS-PAGE, Coomassie blue; both purified.

Results are given in words; binding and its absence hold for the method and conditions named. For some of these results: In cells and extracts the contact can be indirect. Some binding calls cover weakened binding; strength is not graded here.

With “endogenous NUP98 (from UniProt P52948 1-880)”, the binding entry in experiment [1] is reported as “binds”. For “endogenous NUP62 (from UniProt P37198 1-522)”, the binding result in experiment [1] is “binds”. As for “in vitro translated full length NUP153 (from UniProt P49790 1-1475)”, the binding entry in experiment [2] is “binds weakly”; with GST-DYNLT1 (human), “binds”; in experiment [3] it was “no binding”.

On to “endogenous NUP153 (from UniProt P49790 1-1475)”, for which, in experiment [1], the binding entry is “binds”.

Turning to “purified recombinant DYNLT1 (Dynein Light Chain 1) (from UniProt P63172 1-113)”, the binding result with GST-HOXA9 is “no binding”. Consider “in vitro translated full length NUP62 (from UniProt P37198 1-522)”, for which the binding result in experiment [2] was “binds weakly”; with GST-DYNLT1 (human), “binds”; in experiment [3] it was “no binding”.
